Measurements taken from US20230235090A1 (HARBOUR BIOMED US, published 2023).
Values belong to the binder of their own block, whether it stands above or below them.

Key:
[1] = target: T1, CD30 (UniProt P28908 19-379, limits assumed); assay: ELISA, protein coated at 1 µg/mL
T1 construct: bought protein
T1 sequence (looked up): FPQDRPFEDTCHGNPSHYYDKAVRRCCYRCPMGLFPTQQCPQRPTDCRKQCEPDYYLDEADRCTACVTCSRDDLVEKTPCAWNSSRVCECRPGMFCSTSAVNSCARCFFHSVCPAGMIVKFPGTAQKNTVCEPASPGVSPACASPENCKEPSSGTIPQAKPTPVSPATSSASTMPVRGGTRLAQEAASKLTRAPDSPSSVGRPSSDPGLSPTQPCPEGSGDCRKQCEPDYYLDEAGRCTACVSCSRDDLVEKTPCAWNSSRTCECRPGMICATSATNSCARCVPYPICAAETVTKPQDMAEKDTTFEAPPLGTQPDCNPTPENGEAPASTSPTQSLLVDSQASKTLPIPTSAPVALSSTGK

[2] = target: T2, CD27 (UniProt P26842 21-192, limits assumed); assay: ELISA, protein coated at 1 µg/mL
T2 construct: bought protein
T2 sequence (looked up): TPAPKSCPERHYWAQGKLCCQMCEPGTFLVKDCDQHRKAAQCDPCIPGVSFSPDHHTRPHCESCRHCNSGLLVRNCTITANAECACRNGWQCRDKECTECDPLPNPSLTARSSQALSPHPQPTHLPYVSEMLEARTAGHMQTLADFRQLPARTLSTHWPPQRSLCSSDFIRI

[3] = target: T3, HVEM (UniProt Q92956 39-202); assay: ELISA, protein coated at 1 µg/mL
T3 construct: bought protein
T3 sequence (looked up): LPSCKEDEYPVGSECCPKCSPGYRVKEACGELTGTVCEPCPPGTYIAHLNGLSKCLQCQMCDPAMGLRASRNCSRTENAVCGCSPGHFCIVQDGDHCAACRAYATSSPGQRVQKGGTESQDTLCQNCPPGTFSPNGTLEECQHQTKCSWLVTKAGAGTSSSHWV

[4] = target: T4, GITR (UniProt Q9Y5U5 26-161); assay: ELISA, protein coated at 1 µg/mL
T4 construct: bought protein
T4 sequence (looked up): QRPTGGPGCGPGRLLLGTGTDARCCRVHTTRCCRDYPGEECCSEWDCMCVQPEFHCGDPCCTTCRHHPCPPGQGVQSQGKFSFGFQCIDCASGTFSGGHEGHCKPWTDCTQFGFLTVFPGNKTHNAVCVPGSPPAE

[5] = target: T5, OX40 (UniProt P43489 29-216); assay: ELISA, protein coated at 1 µg/mL
T5 construct: bought protein
T5 sequence (looked up): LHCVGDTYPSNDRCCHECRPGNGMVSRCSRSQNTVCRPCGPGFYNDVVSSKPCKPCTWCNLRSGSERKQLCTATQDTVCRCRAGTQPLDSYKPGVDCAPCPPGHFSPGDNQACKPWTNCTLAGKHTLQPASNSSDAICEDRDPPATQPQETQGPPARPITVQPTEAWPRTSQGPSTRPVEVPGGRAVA

[6] = target: T6, CD40 (UniProt P25942 partial chain); assay: ELISA, protein coated at 1 µg/mL
T6 construct: bought protein
T6 sequence (P25942 21-193 limits assumed): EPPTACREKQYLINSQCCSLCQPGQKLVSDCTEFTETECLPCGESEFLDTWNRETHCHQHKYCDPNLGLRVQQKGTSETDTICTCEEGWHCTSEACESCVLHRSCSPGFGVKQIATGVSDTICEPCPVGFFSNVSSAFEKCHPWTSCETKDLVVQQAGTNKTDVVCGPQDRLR

[7] = target: T7, mouse 4-1BB (mouse, UniProt P20334 24-256); assay: FACS, CHO-K1/m4-1BB cells [C]
T7 construct: whole, on cells; also called CHO-K1/m4-1BB
T7 sequence (looked up): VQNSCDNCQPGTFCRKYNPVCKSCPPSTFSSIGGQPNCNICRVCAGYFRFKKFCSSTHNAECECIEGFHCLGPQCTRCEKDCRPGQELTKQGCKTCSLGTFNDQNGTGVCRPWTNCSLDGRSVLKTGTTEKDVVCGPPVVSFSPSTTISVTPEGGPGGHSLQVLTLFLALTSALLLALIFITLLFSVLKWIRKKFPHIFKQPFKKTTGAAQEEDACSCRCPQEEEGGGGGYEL

[8] = target: T8, cynomolgus monkey 4-1BB (cynomolgus monkey); assay: FACS, CHO-K1/cyno-4-1BB cells [B]
T8 construct: whole, on cells; also called CHO-K1-cyno 4-1BB; CHO-K1/cyno4-1BB

[9] = target: T9, Cynomolgus monkey CD 16 (cynomolgus monkey, UniProt Q8SPW2 17-208); assay: BLI, antibody captured on FAB2G sensor, receptor as analyte
T9 construct: bought protein
T9 sequence (Q8SPW2 17-208 limits assumed): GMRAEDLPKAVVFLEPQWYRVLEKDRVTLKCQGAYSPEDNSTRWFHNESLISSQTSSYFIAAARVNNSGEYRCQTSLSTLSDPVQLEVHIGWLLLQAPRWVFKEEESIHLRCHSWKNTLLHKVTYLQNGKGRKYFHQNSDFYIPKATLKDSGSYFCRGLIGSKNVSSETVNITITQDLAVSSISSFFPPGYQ

[10] = target: T10, Human CD 16b (human, UniProt O75015 17-200, limits assumed); assay: as above
T10 construct: bought protein
T10 sequence (O75015 17-200 limits assumed): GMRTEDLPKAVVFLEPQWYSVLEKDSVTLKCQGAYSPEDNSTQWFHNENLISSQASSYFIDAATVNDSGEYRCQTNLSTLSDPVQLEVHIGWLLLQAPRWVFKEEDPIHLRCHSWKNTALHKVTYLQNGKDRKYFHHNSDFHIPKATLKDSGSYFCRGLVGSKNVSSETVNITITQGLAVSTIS

[11] = target: T11, human 4-1BB (human, UniProt Q07011 24-255); assay: FACS, CHO-K1/h4-1BB cells [H]
T11 construct: whole, on cells; also called CD137; TNFRSF9

[12] = target: T11, human 4-1BB; assay: FACS, CHO-K1/h4-1BB cells [J]
T11 sequence (Q07011 24-255): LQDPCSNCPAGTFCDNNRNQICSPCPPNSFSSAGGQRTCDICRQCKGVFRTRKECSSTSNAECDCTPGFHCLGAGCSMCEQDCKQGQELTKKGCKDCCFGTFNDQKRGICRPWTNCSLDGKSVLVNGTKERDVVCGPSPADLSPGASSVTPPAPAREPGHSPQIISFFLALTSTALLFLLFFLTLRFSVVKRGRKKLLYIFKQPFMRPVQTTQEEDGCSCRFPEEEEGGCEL

- binding result [7]: no binding (tested: 100 nM)
- EC50 [8]: 2.99 nM
- Kd [9]: 747 nM
B1: PR004282 (bispecific antibody, human IgG1, kappa, L234A L235A)
light: EIVMTQSPATLSVSPGERATLSCRASQSISSNLGWYQQKPGQAPRLLIYGASTRATGIPARFSGSGSGTEFTLTISSLQSEDFAVYYCQQYQSWPPLTFGGGTKVEIKRTVAAPSVFIFPPSDEQLKSGTASVVCLLNNFYPREAKVQWKVDNALQSGNSQESVTEQDSKDSTYSLSSTLTLSKADYEKHKVYACEVTHQGLSSPVTKSFNRGEC
heavy: QVQLVESGGGVVQPGRSLRLSCAASGFTFRSFGMHWVRQAPGKGLEWVAVISYDASNEYYADSVKGRFIISRDNSKDTLYLQMNSLRAGDTAVYYCAKGGGLRWYFAYWGQGTLVTVSSASTKGPSVFPLAPSSKSTSGGTAALGCLVKDYFPEPVTVSWNSGALTSGVHTFPAVLQSSGLYSLSSVVTVPSSSLGTQTYICNVNHKPSNTKVDKKV[letters of human IgG1 Fc with changes not shown]GGSGGSEVQLLESGGGLVQPGGSLRLSCAASGFTFSNYAMSWFRQPPETGLKWVSSIDASGGDTYYADSVKGRFTISRDNSKNTLYLQMNSLRAEDTAVYYCAKEGSHGTDDSHYDVDVWGQGTTVTVSS
notes: IgG-VH tetravalent symmetric; PR002408 IgG x PR004469 VH; linker GS_6; IgG1 (L234A, L235A); also called PR0004282
- binding result [1]: no binding (tested: 100 nM, 10 nM and 1 nM)
- binding result [2]: no binding (tested: 100 nM, 10 nM and 1 nM)
- binding result [3]: no binding (tested: 100 nM, 10 nM and 1 nM)
- binding result [4]: no binding (tested: 100 nM, 10 nM and 1 nM)
- binding result [5]: no binding (tested: 100 nM, 10 nM and 1 nM)
- binding result [6]: no binding (tested: 100 nM, 10 nM and 1 nM)

- Kd [10]: 3.8 µM
- Kd [9]: 129 nM
B2: PR002408 (antibody, human IgG1, kappa)
heavy: QVQLVESGGGVVQPGRSLRLSCAASGFTFRSFGMHWVRQAPGKGLEWVAVISYDASNEYYADSVKGRFIISRDNSKDTLYLQMNSLRAGDTAVYYCAKGGGLRWYFAYWGQGTLVTVSS[letters of human IgG1 constant region not shown]
light: B1 light
notes: anti-B7-H4 H2L2 recombinant fully human antibody, human IgG1 / kappa; also called PR001476 variant

- EC50 [11]: 0.503 nM
B3: PR004279 (bispecific antibody)
chain 1: QVQLVESGGGVVQPGRSLRLSCAASGFTFRSFGMHWVRQAPGKGLEWVAVISYDASNEYYADSVKGRFIISRDNSKDTLYLQMNSLRAGDTAVYYCAKGGGLRWYFAYWGQGTLVTVSSASTKGPSVFPLAPSSKSTSGGTAALGCLVKDYFPEPVTVSWNSGALTSGVHTFPAVLQSSGLYSLSSVVTVPSSSLGTQTYICNVNHKPSNTKVDKKVEPKSC
chain 2: EIVMTQSPATLSVSPGERATLSCRASQSISSNLGWYQQKPGQAPRLLIYGASTRATGIPARFSGSGSGTEFTLTISSLQSEDFAVYYCQQYQSWPPLTFGGGTKVEIKRTVAAPSVFIFPPSDEQLKSGTASVVCLLNNFYPREAKVQWKVDNALQSGNSQESVTEQDSKDSTYSLSSTLTLSKADYEKHKVYACEVTHQGLSSPVTKSFNRGECEPKSSDKTHTPPPPPEVQLVESGGGVVQPGGSLRLSCAASGFTFSNYAMTWVRQAPEKGLEWVSSISGSGVSTYYADSVKGRFTISRDNSKNTLYLQMTRLTAEDTAVYFCAKEGSSETDDHYYNVDVWGQGTTVTVSS[letters of human IgG1 Fc with changes not shown]
notes: PR002408 Fab x PR001760 VH; IgG1 (L234A, L235A)

- EC50 [12]: 0.531 nM
B4: PR005650 (bispecific antibody)
polypeptide chain 1: B3 chain 1
polypeptide chain 2: EIVMTQSPATLSVSPGERATLSCRASQSISSNLGWYQQKPGQAPRLLIYGASTRATGIPARFSGSGSGTEFTLTISSLQSEDFAVYYCQQYQSWPPLTFGGGTKVEIKRTVAAPSVFIFPPSDEQLKSGTASVVCLLNNFYPREAKVQWKVDNALQSGNSQESVTEQDSKDSTYSLSSTLTLSKADYEKHKVYACEVTHQGLSSPVTKSFNRGECEVQLVESGGGVVQPGGSLRLSCAASGFTFSNYAMTWVRQAPEKGLEWVSSISGSGVSTYYADSVKGRFTISRDNSKNTLYLQMTRLTAEDTAVYFCAKEGSSETDDHYYNVDVWGQGTTVTVSS[letters of human IgG1 Fc with changes not shown]EVQLVESGGGVVQPGGSLRLSCAASGFTFSNYAMTWVRQAPEKGLEWVSSISGSGVSTYYADSVKGRFTISRDNSKNTLYLQMTRLTAEDTAVYFCAKEGSSETDDHYYNVDVWGQGTTVTVSS
notes: Fab-VH-Fc-VH: PR002408 + PR001760 VH, human IgG1 (L234A, L235A)

- EC50 [12]: 0.533 nM
B5: PR005649 (bispecific antibody)
polypeptide chain 1: B3 chain 1
polypeptide chain 2: EIVMTQSPATLSVSPGERATLSCRASQSISSNLGWYQQKPGQAPRLLIYGASTRATGIPARFSGSGSGTEFTLTISSLQSEDFAVYYCQQYQSWPPLTFGGGTKVEIKRTVAAPSVFIFPPSDEQLKSGTASVVCLLNNFYPREAKVQWKVDNALQSGNSQESVTEQDSKDSTYSLSSTLTLSKADYEKHKVYACEVTHQGLSSPVTKSFNRGECEPKSSDKTHTPPPPPEVQLVESGGGVVQPGGSLRLSCAASGFTFSNYAMTWVRQAPEKGLEWVSSISGSGVSTYYADSVKGRFTISRDNSKNTLYLQMTRLTAEDTAVYFCAKEGSSETDDHYYNVDVWGQGTTVTVSSERKCCVECPPCPAPEAAGGPSVFLFPPKPKDTLMISRTPEVTCVVVDVSHEDPEVKFNWYVDGVEVHNAKTKPREEQYNSTYRVVSVLTVLHQDWLNGKEYKCKVSNKALPAPIEKTISKAKGQPREPQVYTLPPSREEMTKNQVSLTCLVKGFYPSDIAVEWESNGQPENNYKTTPPVLDSDGSFFLYSKLTVDKSRWQQGNVFSCSVMHEALHNHYTQKSLSLSPGK
notes: Fab-HCAb: PR002408 Fab + PR001760 VH, human IgG1 (L234A, L235A)
